Results are given in words; binding and its absence hold for the method and conditions named. For some assays here: Binding seen in cells or lysates may run through a third protein. Some results given as binding are weak or reduced against the parent protein; the word gives no strength. For some assays here: Sequences can lack the tags named with a protein.
What was measured:
[1] = target: eGFP-hnRNPK (mouse (129S1 cDNA)) (UniProt P61979); test: co-IP; GFP nanobodies on Dynabeads; 500 ug nuclear extract of mESCs stably expressing eGFP-hnRNPK, 150 mM NaCl, treated with Benzonase, 4°C overnight; washes with 150 mM and 450 mM NaCl; western blot
GST-hnRNPK (mouse) = GST-hnRNPK (mouse) (UniProt P61979); test: pull-down; 30 ug each of PRC1 complex and GST-hnRNPK mixed overnight at 4°C, then Glutathione Sepharose beads 2 hr at 4°C; 20 mM HEPES, 300 mM NaCl, 5% glycerol, 0.1% Triton X-100, 250 mM sucrose, 2 mM β-mercaptoethanol; elution with 10 mM reduced glutathione; western blot; both purified
PCGF3 C-term His/Flag = target: T1, PCGF3 C-term His/Flag (UniProt Q8BTQ0); test: co-purification (nickel affinity chromatography and gel filtration); subunits co-expressed in E. coli ArcticExpress DE3 from psT44, one subunit His-tagged; Ni Sepharose (500 mM NaCl), then Superdex 200 Increase (20 mM HEPES pH7.5, 5% glycerol, 300 mM NaCl)
T1 sequence: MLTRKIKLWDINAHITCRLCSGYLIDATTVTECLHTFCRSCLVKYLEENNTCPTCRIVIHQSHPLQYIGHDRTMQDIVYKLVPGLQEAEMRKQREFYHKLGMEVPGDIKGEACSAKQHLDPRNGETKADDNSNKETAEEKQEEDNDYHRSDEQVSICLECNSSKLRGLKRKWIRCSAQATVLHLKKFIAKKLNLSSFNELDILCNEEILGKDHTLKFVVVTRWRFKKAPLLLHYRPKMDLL

The chains behind the UniProt entries cited, without tags or fusion partners.
UniProt Q9CQJ4: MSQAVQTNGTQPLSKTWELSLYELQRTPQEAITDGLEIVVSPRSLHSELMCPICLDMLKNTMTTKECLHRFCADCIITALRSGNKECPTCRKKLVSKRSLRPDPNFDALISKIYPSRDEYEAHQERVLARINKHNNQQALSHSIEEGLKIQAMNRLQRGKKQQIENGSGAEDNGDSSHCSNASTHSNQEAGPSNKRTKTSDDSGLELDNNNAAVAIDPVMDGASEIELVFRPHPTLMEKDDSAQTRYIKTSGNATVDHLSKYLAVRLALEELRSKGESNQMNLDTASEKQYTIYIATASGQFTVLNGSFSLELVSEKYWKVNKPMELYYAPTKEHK
UniProt Q61188: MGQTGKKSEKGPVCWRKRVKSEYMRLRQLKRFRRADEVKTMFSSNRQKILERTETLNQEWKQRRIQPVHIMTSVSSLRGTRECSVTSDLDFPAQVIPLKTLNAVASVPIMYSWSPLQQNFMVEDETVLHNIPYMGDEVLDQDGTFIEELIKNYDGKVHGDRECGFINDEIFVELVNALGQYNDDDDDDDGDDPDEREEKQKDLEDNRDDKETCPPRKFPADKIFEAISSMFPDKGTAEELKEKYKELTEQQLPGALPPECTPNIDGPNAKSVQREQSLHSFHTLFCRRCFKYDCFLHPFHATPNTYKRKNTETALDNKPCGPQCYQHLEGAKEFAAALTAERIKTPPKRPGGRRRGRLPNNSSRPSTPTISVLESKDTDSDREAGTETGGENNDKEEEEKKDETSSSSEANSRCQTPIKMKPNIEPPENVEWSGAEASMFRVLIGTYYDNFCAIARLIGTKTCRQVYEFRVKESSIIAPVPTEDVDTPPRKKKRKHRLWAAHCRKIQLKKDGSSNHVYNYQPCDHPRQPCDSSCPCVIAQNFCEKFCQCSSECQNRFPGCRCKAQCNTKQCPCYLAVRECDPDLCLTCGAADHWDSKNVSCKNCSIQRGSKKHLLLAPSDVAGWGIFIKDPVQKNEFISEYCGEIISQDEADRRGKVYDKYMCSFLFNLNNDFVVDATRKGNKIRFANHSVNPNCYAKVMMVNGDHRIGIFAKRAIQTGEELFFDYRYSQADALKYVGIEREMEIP
UniProt Q3UK78: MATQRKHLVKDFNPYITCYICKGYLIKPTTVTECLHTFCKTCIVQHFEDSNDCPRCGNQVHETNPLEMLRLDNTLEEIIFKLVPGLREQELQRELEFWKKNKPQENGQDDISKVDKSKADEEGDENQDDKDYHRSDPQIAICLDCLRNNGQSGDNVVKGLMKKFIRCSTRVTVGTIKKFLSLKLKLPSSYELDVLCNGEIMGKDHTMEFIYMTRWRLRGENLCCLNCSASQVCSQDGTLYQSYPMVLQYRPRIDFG

RING1B C-term His/Strep = RING1B C-term His/Strep (UniProt Q9CQJ4); test: as above

In the case of EZH2 (from UniProt Q61188 1-746), the binding [1] is reported as “no binding”.

In the case of “PCGF3-PRC1 (RING1B, RYBP, PCGF3 C-term His/Flag) (from UniProt Q9CQJ4 1-336; Q8CCI5 1-228; Q8BTQ0 1-241) (complex)”, the binding (GST-hnRNPK (mouse)) is reported as “binds”.

For EED (from UniProt Q921E6 1-441), the binding [1] was “no binding”.

For “PCGF6-PRC1 (RING1B C-term His/Strep, RYBP, PCGF6) (from UniProt Q9CQJ4 1-336; Q8CCI5 1-228; Q99NA9 1-353) (complex)”, the binding (GST-hnRNPK (mouse)) was “no binding”.

For “RING1B (recombinant, subunit of PRC1.3) (from UniProt Q9CQJ4 1-336)”, the binding (PCGF3 C-term His/Flag) was “binds”.

“PCGF2-PRC1 (RING1B C-term His/Strep, RYBP, PCGF2) (from UniProt Q9CQJ4 1-336; Q8CCI5 1-228; P23798 1-342) (complex)” was tested, and the binding (GST-hnRNPK (mouse)) was “no binding”.

In the case of PCGF5 (from UniProt Q3UK78 1-256), the binding [1] is reported as “binds”.

B1: RYBP (recombinant) (protein, UniProt Q8CCI5 1-228)
chain: MTMGDKKSPTRPKRQAKPAADEGFWDCSVCTFRNSAEAFKCSICDVRKGTSTRKPRINSQLVAQQVAQQYATPPPPKKEKKEKVEKPDKEKPEKDKDISPSVTKKNTNKKTKPKSDILKDPPSEANSIQSANATTKTSETNHTSRPRLKNVDRSTAQQLAVTVGNVTVIITDFKEKTRSSSTSSSTVTSSAGSEQQNQSSSGSESTDKGSSRSSTPKGDMSAVNDESF
In the case of B1, the binding (RING1B C-term His/Strep) is reported as “binds” and the binding (PCGF3 C-term His/Flag) is reported as “binds”.

B2: PCGF2 (recombinant) (protein, UniProt P23798 1-342)
chain: MHRTTRIKITELNPHLMCALCGGYFIDATTIVECLHSFCKTCIVRYLETNKYCPMCDVQVHKTRPLLSIRSDKTLQDIVYKLVPGLFKDEMKRRRDFYAAYPLTEVPNGSNEDRGEVLEQEKGALGDDEIVSLSIEFYEGVRDREEKKNLTENGDGDKEKTGVRFLRCPAAMTVMHLAKFLRNKMDVPSKYKVEILYEDEPLKEYYTLMDIAYIYPWRRNGPLPLKYRVQPACKRLTLPTVPTPSEGTNTSGASECESVSDKAPSPATLPATSSSLPSPATPSHGSPSSHGPPATHPTSPTPPSTAAGTTTATNGGTSNCLQTPSSTSRGRKMTVNGAPCPP
With B2 the binding (RING1B C-term His/Strep) was “binds”.

B3: PCGF6 (recombinant) (protein, UniProt Q99NA9 1-353)
chain: MDEAETDATENKRASEAKRASAMPPPPPPPPPISPPALIPAPAAGEEGPASLGQAGAAGCSRSRPPALEPERSLGRLRGRFEDYDEELEEEEEMEEEEEEEEEMSHFSLRLESGRADSEDEEERLINLVELTPYILCSICKGYLIDATTITECLHTFCKSCIVRHFYYSNRCPKCNIVVHQTQPLYNIRLDRQLQDIVYKLVINLEEREKKQMHDFYKERGLEVPKPAAPQPVPSSKGKTKKVLESVFRIPPELDMSLLLEFIGANEDTGHFKPLEKKFVRVSGEATIGHVEKFLRRKMGLDPACQVDIICGDHLLERYQTLREIRRAIGDTAMQDGLLVLHYGLVVSPLKIT
In the case of B3, the binding (RING1B C-term His/Strep) is reported as “binds”.

Reference: paper PMC5735038
